Assay [1] addresses recombinant hPD-L1 hIgG1 Fc-fusion protein (R&D Systems) (human, UniProt Q9NZQ7 fragment). In words: FACS binding titration on HEK 293 cells.
Assay [2] has as its target T1, recombinant hPD-L2 hIgG1 Fc-fusion protein (R&D Systems) (human, UniProt Q9BQ51 20-219).
T1 chain: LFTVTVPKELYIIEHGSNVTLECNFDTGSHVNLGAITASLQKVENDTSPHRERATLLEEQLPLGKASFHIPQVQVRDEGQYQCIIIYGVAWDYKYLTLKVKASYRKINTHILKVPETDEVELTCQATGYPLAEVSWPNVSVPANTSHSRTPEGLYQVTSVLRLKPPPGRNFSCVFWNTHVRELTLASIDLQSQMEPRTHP
Kind of assay: FACS binding titration on HEK 293 cells. In general terms: A flow cytometer gives signals particle by particle.

Sequence of UniProt Q9NZQ7 (Q9NZQ7 19-239): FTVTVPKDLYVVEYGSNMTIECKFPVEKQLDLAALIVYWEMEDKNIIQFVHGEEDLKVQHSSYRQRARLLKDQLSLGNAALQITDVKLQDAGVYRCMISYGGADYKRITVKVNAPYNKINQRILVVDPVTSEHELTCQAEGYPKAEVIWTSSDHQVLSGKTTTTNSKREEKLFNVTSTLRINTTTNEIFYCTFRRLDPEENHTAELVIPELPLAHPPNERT

B1: wild-type human PD-1 ectodomain (Leu 25-Thr 168) displayed on HEK 293 cells (hPD-1 Type I mCherry) (receptor)
chain: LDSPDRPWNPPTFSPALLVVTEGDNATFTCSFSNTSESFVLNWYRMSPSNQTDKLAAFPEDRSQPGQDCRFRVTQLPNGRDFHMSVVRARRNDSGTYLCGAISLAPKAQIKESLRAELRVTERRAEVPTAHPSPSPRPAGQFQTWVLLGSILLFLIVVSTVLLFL
Broadly, the EC50 is the concentration giving half of the maximal effect. On to B1, for which the values for the EC50 in assay [1] and in assay [2] were ~0.03 nM and ~0.02 nM, respectively.

B2: human PD-1 mutant T76E (hPD-1 Type I mCherry, on HEK 293 cells) (receptor)
chain: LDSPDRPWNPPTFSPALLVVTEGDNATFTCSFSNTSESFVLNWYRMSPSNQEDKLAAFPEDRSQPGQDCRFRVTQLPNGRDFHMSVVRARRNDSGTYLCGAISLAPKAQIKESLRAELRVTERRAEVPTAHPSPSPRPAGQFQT
As for B2, the EC50 is ~0.31 nM in assay [1] and ~0.78 nM in assay [2].

B3: human PD-1 mutant Y68N (hPD-1 Type I mCherry, on HEK 293 cells) (receptor)
chain: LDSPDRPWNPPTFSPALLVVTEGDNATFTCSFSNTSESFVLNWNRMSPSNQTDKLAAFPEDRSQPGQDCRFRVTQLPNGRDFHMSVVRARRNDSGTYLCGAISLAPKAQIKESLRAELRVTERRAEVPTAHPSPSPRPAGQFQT
As to B3, the EC50 in assay [1] was ~0.13 nM; in assay [2], ~0.96 nM.

B4: human PD-1 mutant T76D (hPD-1 Type I mCherry, on HEK 293 cells) (receptor)
chain: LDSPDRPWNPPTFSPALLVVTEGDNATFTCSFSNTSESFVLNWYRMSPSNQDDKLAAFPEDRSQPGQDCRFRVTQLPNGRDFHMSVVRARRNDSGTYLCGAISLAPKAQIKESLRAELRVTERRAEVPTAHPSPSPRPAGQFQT
For the molecule B4, the EC50 in assay [1] was ~0.21 nM; in assay [2], ~1.05 nM.

The values are drawn from US20220047729A1 (published 2022).
